# In paper PMC12136788:
# The list shows a part of the results.
# T1: UNK ZnF1-3 (human, UniProt Q9C0B0 31-174)
# T1 sequence: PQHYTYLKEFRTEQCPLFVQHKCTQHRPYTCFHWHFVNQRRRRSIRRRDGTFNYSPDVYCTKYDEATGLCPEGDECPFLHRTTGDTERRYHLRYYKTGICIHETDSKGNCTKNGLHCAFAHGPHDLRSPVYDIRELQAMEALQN
# B1: chr13:13598695:13598696:+_ENSMUSG00000005397_ENSMUST00000005532|mus_mus|FALSE|FALSE (ssRNA)
# RNA: GGGAGUUCUACAGUCCGACGAUCCACCAAACCCGUGUCAAACAGCACUCGGCGCUGGGUGCCAUCCAUCUUUGCAACUUCUAUUCGAUCCAACUGAGAGUCCGUCCAGAAGAUGGUUCGACCAAGAUGGUCAAGGGCAAUGCCCAACAGAGGAUUGAGCAUCA
# B2: chr5:134670393:134670394:-_ENSG00000113648_ENST00000304332|hu_hu|FALSE|FALSE (ssRNA)
# RNA: GGGAGUUCUACAGUCCGACGAUCUAAAAGACGCUGUUCUCCCCACUGCUGUGCGUCAAUCAGGGUUUCAUUAAAAUAAAACUAUAAAAUCUCCUAGGUUACACUAAGUCAGACACGGUCUGGAACACAGUGCUUAACAACAGUCAACAGAGGAUUGAGCAUCA
# B3: chr11:72491332:72491333:+_ENSMUSG00000020794_ENSMUST00000021148|perfect_dup|motif|central (ssRNA)
# RNA: GGGAGUUCUACAGUCCGACGAUCAGCAUCAACAUUAGCAGGUGAGUCUCCAUUAGGGUCUGCCAGCAUAGAAAUGACACGGAUCAUGAUGGUUUCCACAGUGUGGAUAGGGAGCCAGCGUUCCUCUGGCUUUUCAUAACCAUACAACAGAGGAUUGAGCAUCA
# B4: chrM:11124:11125:+_ENSG00000198886_ENST00000361381|hu_hu|FALSE|FALSE (ssRNA)
# RNA: GGGAGUUCUACAGUCCGACGAUCUCUGGCUGGUUGCCUCAUCGGGUGAUGAUAGCCAAGGUGGGGAUAAGUGUGGUUUCGAAGAAGAUAUAAAAUAUGAUUAGUUCUGUGGCUGUGAAUGUUAUAAUUAAGGAGAUUUGUAGGCAACAGAGGAUUGAGCAUCA
# B5: chr1:39494447:39494448:+_ENSG00000168653_ENST00000372967|hu_mus|hu_hu_hu_mus_False|88_88 (ssRNA)
# RNA: GGGAGUUCUACAGUCCGACGAUCGCACCGAGCGGCGUUCUUAUAGGGCUGUUCACCGCUUAGGAACAUAAAGUGCCGGUCCAGGCUGAUGCCCAGCUUUUUCUGUAUGUCAAGGAAAGGCAUGGCUCUGCAGUGCCCUUGUCACAACAGAGGAUUGAGCAUCA
# B6: 122143246_122143366_4319_3pUTR_ENSG00000114030_ENST00000344337|human|control|control (ssRNA)
# RNA: GGGAGUUCUACAGUCCGACGAUCCAAGUUCCAACAUAUCUGAGUUAUGCUACUUCACUUUUAGCCAAUUCCAACUUUGAUACUUUAAGAAAAAAUCAUUUUAUUGUUAAAAAAGAAAAAAAAACUUAGAUCUUAUAGUUCAUGCAACAGAGGAUUGAGCAUCA
# B7: chr11:87044496:87044497:-_ENSMUSG00000046442_ENSMUST00000055438|mus_mus|FALSE|FALSE (ssRNA)
# RNA: GGGAGUUCUACAGUCCGACGAUCGCAUGGAAUAUCAUUACGCUUUCUGAUCUUCACAUUUCCACUAUAUCCUUCCCAACUAUUUUCCCUCCAUGGCAAAGAACUUCUUAACAUCUUGUUUCUCUUCCCACUUCGAGUAAGUGACAACAGAGGAUUGAGCAUCA
# B8: chr16:2011185:2011186:+_ENSG00000140990_ENST00000268668|hu_mus|FALSE|FALSE (ssRNA)
# RNA: GGGAGUUCUACAGUCCGACGAUCCACUCGACGGUACUGUCGGUGGUAGUAGUAGGUUCGGUUCUUGGCAUGCUGUCGUUCAAUAAACUCUCUCACGAGGGUCACGGGCCAGUCCACGACGAGGUCGUAGGCCUUCGUCAAGUACAACAGAGGAUUGAGCAUCA
# B9: chr6:31620082:31620083:-_ENSG00000204463_ENST00000375976|hu_hu|FALSE|FALSE (ssRNA)
# RNA: GGGAGUUCUACAGUCCGACGAUCCUAGCUGACUGCCCGCGUCUACUGCCUUCCCACGGUGUUCCAGCAGAACGGCACAACUAACCCACAGCCAAACACACACACACACACACACACACACACACACACACACACCCACCACCCCAACAGAGGAUUGAGCAUCA
# B10: chr4:71802285:71802286:-_ENSMUSG00000008305_ENSMUST00000030095|mus_hu|FALSE|FALSE (ssRNA)
# RNA: GGGAGUUCUACAGUCCGACGAUCUGCCGAGGAGGCCGUGGAAGCUGGACUGCUAGAAGCAUCCUUCUUUAGCAGGCGAUUUUUGUCGAUUCCAUUUUCCCGGGGCGAGUGGGCAGGGCUUGCUCGCGGAGAAGAAGGGUCCUCCAACAGAGGAUUGAGCAUCA
# B11: chr2:230636304:230636305:-_ENSG00000153827_ENST00000389045|hu_mus|FALSE|FALSE (ssRNA)
# RNA: GGGAGUUCUACAGUCCGACGAUCGUACUGAAGAUGGCAGAGCGGGAAGACCGAUUCAAAUCCAUCUCUGAAUGAGUCAAACUGUCGACAAACACCUUCAUUUAGUGCCCAGAAUAUCACCAAUCUCAGGUACUCUUCCAAAUUCAACAGAGGAUUGAGCAUCA
# B12: chr9:108846149:108846150:+_ENSMUSG00000025651_ENSMUST00000026743|mus_mus|motif|central (ssRNA)
# RNA: GGGAGUUCUACAGUCCGACGAUCGUGCUCUCGAGUGCUGUAGGCAUUAAGAUGAGCCCCAAUACUCUCUACCUCCUUCUCGGAGGCAUUGCCAGGCCGAUUCUUUGUUCCCUUGAAAGCCAGAUGUUCCAAAAAGUAGCCUGCCAACAGAGGAUUGAGCAUCA
# B13: chr1:220276048:220276049:+_ENSG00000067704_ENST00000302637|hu_hu|hu_hu_hu_mus_True|28_108 (ssRNA)
# RNA: GGGAGUUCUACAGUCCGACGAUCGCAAACAGCUUCAUUGGCGGGAAUUGUCCAAGGCUGGGUGGUCCAAACUAAAACGCUAACAGGGGAUGAGGCAUCUGUAAGAGAUGCCAAUUUCGGAGGAGGUCUCAGGAGGGGGAAUCUCAACAGAGGAUUGAGCAUCA
# B14: chr11:87793471:87793472:-_ENSMUSG00000020483_ENSMUST00000020775|mus_mus|mus_mus_mus_hu_False|38_108 (ssRNA)
# RNA: GGGAGUUCUACAGUCCGACGAUCUGGGGGCUGGGGAAAAAGAAUAAGCUGGAUCCCCCACCCCCCCACAUUGUCAACCCUACACGAGAGUUUUGAAUGAUUCAUAAGAAAAUCAGCAGCUCAAACGGCAAUGACCACCCCACCCAACAGAGGAUUGAGCAUCA
# Biological target: T1, UNK ZnF1-3
# Experiment: nsRBNS (natural sequence RNA bind-n-seq); RBNS binding buffer (assumed for nsRBNS): 25 mM Tris pH 7.5, 150 mM KCl, 3 mM MgCl2, 0.01% Triton X-100, 500 ug/ml BSA, 20 U/ml SUPERase-In, 4 C; UNK is unkempt and MSI1 is Musashi-1; names of the RNAs are library labels; protein concentration not given here; high values mean tight binding
row,Binder,binding signal [enrichment R]
1,B1,1.06
2,B2,1.23
3,B3,1.16
4,B4,2.63
5,B5,0.841
6,B6,0.767
7,B7,0.619
8,B8,0.67
9,B9,1.47
10,B10,0.779
11,B11,1.02
12,B12,0.76
13,B13,2.68
14,B14,1.42
